Measured values published in PubChem BioAssay AID1345083 (National Center for Advancing Translational Sciences (NCATS), 2018).
Hit rate of the full screen: of about 94,000 compounds, about 6,200 (6.6%) were called active. This list was built around the results that the source calls inconclusive (neither active nor inactive); the mix of calls is not that of the screen. The call rests on the fitted dose curve; in most records, active means well fitted inhibition curve with a large enough effect; inconclusive means small, poorly fitted or top-dose-only effect; inactive means flat fitted curve, though single readings scatter. Potencies of inconclusive entries are doubtful fits and often do not repeat.

Assay: Cytotoxic Profiling in HEK 293 Cell Line of Diverse Libraries Using Quantitative High-Throughput Screening; further: nearly all actives have a fitted effect of over 60% in size
Conditions: HEK 293 viability, ATP luminescence (CellTiter-Glo), 48-72 h; activity change, negative = cytotoxicity: at 115 µM (top of the series) unless noted; series mostly up to 115 µM
In short: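 Pintool-delivered compounds were incubated with HEK 293 cells (250 cells/well) at 37 degree Celsius for 48 or 72 hr. ATP-dependent luminescence (CellTiter-Glo) then reported remaining viable cells.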
On the % scale 0 is the no-effect control and ±100 the full control effect; potency means the concentration at half of the fitted maximal effect; tags describe the fitted curve by direction and shape.

Row | SMILES | Potency | activity change, negative = cytotoxicity | outcome
1 | Cc1ccc(C(=O)COc2cccn3c(=O)c(-c4cc(C)n(-c5ccccc5)n4)c(C)nc23)cc1 | inconclusive: 56.2 µM [inhibitor, partial curve, poor fit] |  | 
2 | CCCCCNc1ncnc2c1CN(C1CCCNCC1)C(=O)CN2C (configuration not stated) |  | inactive: -3.85% | 
3 | Cc1cc2cc(-c3c(C)noc3C)nc(-c3ccnn3C)c2o1 | inconclusive: 70.8 µM [inhibitor, partial curve, poor fit] |  | 
4 | O=C(N[C@H]1CO[C@H]2[C@@H]1OC[C@@H]2n1nnnc1-c1ccc2c(c1)OCO2)c1ccc(C(F)(F)F)cc1 | inconclusive: 44.7 µM [inhibitor, partial curve, poor fit] |  | 
5 | COCC(=O)N[C@H]1CO[C@H]2[C@@H]1OC[C@@H]2Nc1nccc(-c2cccc(F)c2)n1 | active: 100 µM |  | 
6 | O=C(N[C@H]1CCN2C(=O)c3cc(-c4cccs4)ccc3NC(=O)[C@H]12)c1cnccn1 | inconclusive: 126 µM [inhibitor, single point] |  | 
7 | Cc1ccc(CN2CCCCCNC(=O)[C@@H]3CCC[C@@H]32)o1 | inconclusive: 79.4 µM [inhibitor, partial curve, poor fit] |  | 
8 | COc1ccc(Cl)cc1-c1ccc2c(c1)C(=O)N1CC[C@H](N)[C@H]1C(=O)N2 | inconclusive: 112 µM [inhibitor, partial curve, poor fit] |  | 
9 | Cc1noc(-c2ccc(OC(F)(F)F)cc2)c1C(=O)NCc1ccc2c(c1)OCO2 | inconclusive: 79.4 µM [inhibitor, partial curve, poor fit] |  | 
10 | O=C(CCc1cc(Cl)no1)NCCc1noc(C2CC2)n1 |  | inactive: -22.8% | 
11 | Fc1cccc(-c2cnc([C@@H]3COCCN3Cc3ccccc3)[nH]2)c1 | inconclusive: 100 µM [inhibitor, partial curve] |  | 
12 | CN1CCC2(C1)CN(CC1CCOCC1)c1ccc(C(=O)Nc3ccccc3)cc12 (configuration not stated) | active: 100 µM |  | 
13 | COc1ccc(-c2cc(C(=O)NC3CCOC3)c3cnn(C)c3n2)cc1 (configuration not stated) | inconclusive: 112 µM [inhibitor, partial curve, poor fit] |  | 
14 | COc1ccc(-c2nccc3c(=O)cc(N4CCN(C)CC4)oc23)cn1 |  |  | inactive [at 172 µM]
15 | Cc1cccc(OCCc2noc(C3CCCCN3Cc3cccnc3)n2)c1 (configuration not stated) | inconclusive: 35.5 µM [inhibitor, partial curve, poor fit] |  | 
16 | Cc1nn(-c2ccccc2)c2c1C(C(C)C)N(C1CN([S+](=O)([O-])c3cccs3)C1)C2=O (configuration not stated) | inconclusive: 22.4 µM [inhibitor, full curve] |  | 
17 | Cn1nccc1C(=O)N1CCC(c2nc(CCOCC3CCCC3)no2)C1 (configuration not stated) | inconclusive: 89.1 µM [inhibitor, single point] |  | 
